Test results published in the supplement of paper PMC4723716.
Where “and” joins values, the source holds several entries; their conditions need not be identical. Equal values may be shown once. ± gives the uncertainty stated by the source. Over roughly 9,900 compounds, “viability index relative to DMSO control” has its median near 1; the lowest 2% begin near 0.85. The list shows a part of the results.

System: Plasmodium falciparum NF54 stage V gametocytes
Assay: viability index relative to DMSO control (fraction); higher = less gametocyte killing
Conditions: 2.5 µM, incubation time: 72 h
How it was run: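 P. falciparum NF54 stage V gametocytes in serum-free screening medium (0.75% gametocytemia, 1.25% hematocrit, 10 µl) were incubated with compound at 2.5 µM in 1,536-well plates for 72 hr at 37°C under low oxygen. Then 3 µl of 2.5 µM MitoTracker Red CMXRos plus 0.13% saponin was added for one to two hours. One field per well was imaged, 20–70 µm2 red particles were counted, and the viability index was the count divided by the plate mean of DMSO wells.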

[1] = library set: Broad Institute DOS

| SMILES | viability index [1] | viability index (library set: Broad Institute Blood Stage) |
| --- | --- | --- |
| COc1cccc(C(=O)Nc2ccc3c(c2)OC[C@H](C)N(CCc2ccccc2)C[C@H](C)[C@@H](OC)CN(C)C3=O)c1 | 1.06 ± 0.031 |  |
| C[C@H]1CN([C@@H](C)CO)C(=O)c2ccccc2-c2ccccc2CO[C@H]1CN(C)S(=O)(=O)c1cn(C)cn1 | 1.01 ± 0.12 |  |
| CO[C@H]1CN(C)C(=O)c2cc(NC(=O)c3cnccn3)ccc2OC[C@H](C)NC[C@@H]1C | 1.04 ± 0.053 |  |
| N#C[C@@H]1[C@@H](c2ccccc2C2=CCCC2)[C@H](CO)N1C(=O)C1CCOCC1 | 1.01 ± 0.015 |  |
| CO[C@@H]1CN(C)C(=O)c2cc(NC(=O)c3nc4ccccc4s3)ccc2OC[C@H](C)NC[C@H]1C | 1.05 ± 0.059 |  |
| COc1ccc(CNC(=O)c2cc3c(c(-c4cccc(-c5ccc(C#N)cc5)c4)n2)[C@@H](CCO)N([S@](=O)C(C)(C)C)C3)cc1 | 1.02 ± 0.065 |  |
| CO[C@@H]1CC[C@H]2CCOc3c(C#N)cccc3C(=O)N(C)C[C@@H](c3ccccc3)CC(=O)N(C)C[C@@H]1O2 | 1.01 ± 0.049 |  |
| COc1ccc(-c2cn(CC[C@H]3CC[C@@H](NC(=O)c4cnccn4)[C@@H](CO)O3)nn2)cc1 | 1.21 ± 0.081 |  |
| O=S(=O)(Cc1ccccc1)N1CC2(C1)[C@H](c1ccccc1)[C@H](CO)N2CC1CCCC1 | 1.1139 ± 0.00092 |  |
| C[C@H](CO)N1C[C@H](C)[C@@H](CN(C)S(=O)(=O)c2ccc3c(c2)OCCCO3)OCc2cnnn2CCCC1=O | 1.003 ± 0.0081 |  |
| CS(=O)(=O)N1[C@@H](C#N)[C@@H](c2ccc(C#Cc3cccc(F)c3)cc2)[C@@H]1CO | 1 ± 0.087 |  |
| Cc1noc(C)c1C(=O)N(C)C[C@H]1OCc2ccccc2-c2ccccc2C(=O)N([C@H](C)CO)C[C@H]1C | 0.988 ± 0.047 |  |
| CCC(=O)N[C@H]1CC[C@@H](CC(=O)NCc2ccccc2F)O[C@@H]1CO | 1.12 ± 0.067 |  |
| C[C@H]1CN([C@@H](C)CO)C(=O)Cc2cc(NC(=O)CCN3CCOCC3)ccc2O[C@H]1CN(C)Cc1ccc(C(=O)O)cc1 | 1.01 ± 0.043 |  |
| O=C(C[C@@H]1C=C[C@@H](NC(=O)Cc2ccccn2)[C@H](CO)O1)NCCc1ccncc1 | 0.908 ± 0.09 |  |
| CCC(=O)N1CC2(C1)[C@H](c1ccccc1)[C@@H](CO)N2CC1CC1 | 1.05 ± 0.078 |  |
| COc1ccc2c3c([C@@H](CO)NC[C@]33CN(C3)C(=O)CC3CC3)n(C)c2c1 | 1.04 ± 0.081 |  |
| O=C(C1CCCCC1)N1[C@@H]2CNc3ccccc3[C@@H]2[C@@H]1CO | 1.03 ± 0.15 |  |
| CO[C@@H]1CN(C)C(=O)c2ccc(NS(=O)(=O)c3c(C)noc3C)cc2OC[C@H](C)NC[C@H]1C | 1.1 ± 0.048 |  |
| O=C1CNC[C@@H]2[C@@H](c3ccc(C#Cc4cccnc4)cc3)[C@@H](CO)N12 | 1.05 ± 0.021 |  |
| CCCC(=O)N1CC[C@@]2(CC1)CN([C@H](CO)c1[nH]c3cc(OC)ccc3c21)C(=O)C1CCC1 | 1.05 ± 0.084 |  |
| CO[C@@H](CN(C)S(=O)(=O)c1ccc(C)cc1)[C@@H](C)CN([C@@H](C)CO)S(=O)(=O)c1cccc(Cl)c1 | 1.04 ± 0.026 |  |
| C[C@@H]1CCCCO[C@H](CN(C)Cc2ccc(Cl)c(Cl)c2)[C@@H](C)CN([C@H](C)CO)C(=O)c2cc(NC(=O)c3ccncc3)ccc2O1 | 1.05 ± 0.047 |  |
| O=C(Nc1ccc2c(c1)[C@H]1C[C@@H](CC(=O)N3CCOCC3)O[C@H](CO)[C@H]1O2)Nc1ccccc1F | 1.11 ± 0.032 |  |

| SMILES | viability index [1] | viability index (library set: Broad Institute Blood Stage) |
| --- | --- | --- |
| CCC(=O)N1[C@@H](CO)[C@@H](c2ccccc2)C12CN(C(=O)c1ccncc1)C2 | 1.01 ± 0.071 |  |
| C[C@@H]1CN([C@@H](C)CO)C(=O)c2cccc(NS(=O)(=O)c3ccc(F)cc3)c2O[C@@H]1CN(C)Cc1ccc(Cl)c(Cl)c1 | 1.01 ± 0.14 |  |
| COc1ccc(NC(=O)N(C)C[C@H]2OCc3cnnn3CCCC(=O)N([C@@H](C)CO)C[C@H]2C)c(OC)c1 | 0.968 ± 0.03 |  |
| N#C[C@H]1[C@@H](c2ccccc2-c2cccc(F)c2)[C@@H](CO)N1C(=O)c1cccnc1 | 1.11 ± 0.1 |  |
| CNC[C@@H]1Oc2ncc(-c3cncnc3)cc2C(=O)N([C@@H](C)CO)C[C@H]1C | 1.09 ± 0.012 |  |
| COc1ccc2c3c([C@H](CO)NC[C@]33CN(C3)C(=O)c3cccc(F)c3)n(C)c2c1 | 1.03 ± 0.052 |  |
| CC(=O)N1[C@H](CO)[C@@H](c2ccccc2)[C@H]1CN(CC(C)C)C(=O)c1ccccn1 | 1.058 ± 0.0036 |  |
| COc1ccc(CN(C)C[C@@H]2OCCCC[C@H](C)Oc3ccc(NC(=O)C4CCCCC4)cc3C(=O)N([C@@H](C)CO)C[C@H]2C)cc1 | 1.07 ± 0.072 |  |
| C[C@@H]1CN([C@H](C)CO)C(=O)CCCn2cc(nn2)CO[C@@H]1CN(C)C(=O)c1ccc(N2CCN(C)CC2)cc1 | 0.987 ± 0.052 |  |
| CO[C@H]1CN(C)C(=O)c2cc(NC(=O)c3nc4ccccc4s3)ccc2OC[C@@H](C)NC[C@@H]1C | 1.11 ± 0.074 |  |
| Cn1cnc(CCNC(=O)C[C@@H]2CC[C@H]3[C@@H](COC[C@@H](O)CN3C(=O)Nc3ccc(C(F)(F)F)cc3)O2)c1 | 1.06 ± 0.051 |  |
| O=C(N[C@H]1CC[C@@H](CC(=O)N2CCOCC2)O[C@@H]1CO)c1cccc(F)c1 | 1.03 ± 0.074 |  |
| CCC(=O)N(CC(C)C)C[C@@H]1[C@@H](c2ccccc2)[C@H](CO)N1C(=O)C1CCC1 | 0.982 ± 0.02 |  |
| COc1cccc(C#Cc2ccc3c(c2)O[C@H](CN(C)C(=O)CN2CCOCC2)[C@H](C)CN([C@@H](C)CO)S3(=O)=O)c1 | 1.03 ± 0.13 |  |
| CCS(=O)(=O)N1C[C@@]2(C1)CN(Cc1ccccc1F)[C@H](CO)c1[nH]c3cc(OC)ccc3c21 | 0.9355 ± 0.0019 |  |
| O=C1NC(Cc2cccc(Cl)c2)COCc2cnnn2CCC1c1ccccc1 (stereo not given) | 0.96562 ± 0.00019 |  |
| N#C[C@@H]1[C@@H](c2ccc(-c3cccnc3)cc2)[C@H](CO)N1C(=O)C1CCOCC1 | 1.086 ± 0.0017 |  |
| COCC(=O)N1C[C@@]2(C1)CN(Cc1ccc3OCOc3c1)[C@H](CO)c1c2c2ccc(OC)cc2n1C | 0.938 ± 0.068 |  |
| COc1ccc(CN(C)C[C@H]2OCCCC[C@@H](C)Oc3ccc(NC(=O)C4CCCCC4)cc3C(=O)N([C@H](C)CO)C[C@@H]2C)cc1 | 1.07 ± 0.029 |  |
| C[C@@H](NC(=O)C[C@H]1CC[C@H]2[C@H](COc3ccc(NC(=O)C4CCOCC4)cc3C(=O)N2C)O1)c1ccccc1 | 1.061 ± 0.0016 |  |
| COc1ccc2c3c([nH]c2c1)[C@H](CO)N(C[C@]31CN(C1)C(=O)CN1CCOCC1)C(C)=O | 0.987 ± 0.065 |  |
| CN1C(=O)c2cc(NC(=O)c3cccc(F)c3)ccc2OC[C@@H]2O[C@@H](CC(=O)NCC3CCCCC3)CC[C@@H]21 | 1.03 ± 0.1 |  |
| CCNC(=O)[C@H]1[C@H](CO)[C@H]2Cn3c(ccc(-c4cccc(F)c4)c3=O)[C@H]2N1C(=O)Cc1cccnc1 | 1.04 ± 0.065 |  |
| O=C(Nc1ccc(C(F)(F)F)cc1)Nc1ccc2c(c1)[C@H]1C[C@H](CC(=O)N3CCc4ccccc4C3)O[C@@H](CO)[C@H]1O2 | 1.081 ± 0.0074 |  |

| SMILES | viability index [1] | viability index (library set: Broad Institute Blood Stage) |
| --- | --- | --- |
| Cc1noc(C)c1S(=O)(=O)N(C)C[C@@H]1OCCCC[C@H](C)Oc2ccc(N(C)C)cc2C(=O)N([C@H](C)CO)C[C@H]1C | 0.998 ± 0.043 |  |
| CC(C)N(C[C@H]1[C@@H](c2ccccc2)[C@H](CO)N1S(C)(=O)=O)C(=O)CN(C)C | 1.01 ± 0.073 |  |
| COc1cccc(C(=O)Nc2ccc3c(c2)C(=O)N(C)[C@@H]2CC[C@@H](CC(=O)NCc4ccc(F)cc4)O[C@@H]2CO3)c1 | 1.17 ± 0.09 |  |
| O=C(C[C@H]1CC[C@H]2[C@@H](COC[C@H](O)CN2Cc2cc(F)ccc2F)O1)NCc1ccc(Oc2ccccc2)cc1 | 1.06 ± 0.045 |  |
| COc1ccc2c3c([nH]c2c1)[C@H](CO)N(Cc1nccs1)C[C@]31CN(Cc2ccncc2)C1 | 0.986 ± 0.099 |  |
| CN1C(=O)c2cc(NC(=O)c3cccc(F)c3)ccc2OC[C@@H]2O[C@H](CC(=O)NCC3CCCCC3)CC[C@@H]21 | 1.09 and 1.11 |  |
| C[C@H](CO)N1C[C@H](C)[C@@H](CN(C)Cc2ccccc2)Oc2ccc(NC(=O)Nc3ccccc3)cc2C1=O | 1.045 ± 0.0045 |  |
| C[C@H]1CN([C@@H](C)CO)S(=O)(=O)c2ccc(-c3cncnc3)cc2O[C@@H]1CN(C)C(=O)NC1CCCC1 | 0.931 ± 0.06 |  |
| Cc1noc(C)c1S(=O)(=O)Nc1ccc2c(c1)C(=O)N([C@H](C)CO)C[C@@H](C)[C@@H](CN(C)Cc1ccc(C(=O)O)cc1)OCCCC[C@@H](C)O2 | 1.14 ± 0.055 |  |
| CN1CCN(C(=O)[C@H]2[C@H](CO)[C@H]3Cn4c(cccc4=O)[C@H]3N2Cc2cc(F)ccc2F)CC1 | 1.1 ± 0.021 |  |
| C[C@H]1CN([C@@H](C)CO)C(=O)CCCn2cc(nn2)CO[C@H]1CN(C)S(=O)(=O)c1ccc(-n2cccn2)cc1 | 1.066 ± 0.0082 |  |
| C[C@H](CO)N1C[C@H](C)[C@H](CN(C)S(=O)(=O)c2cn(C)cn2)OCCCC[C@H](C)Oc2ccc(NC(=O)Nc3cccc4ccccc34)cc2C1=O | 1.08 ± 0.11 |  |
| O=C(Nc1ccccc1F)N1CC(=O)N2[C@@H](CO)[C@H](c3ccc(-c4cccnc4)cc3)[C@@H]2C1 | 1.08 ± 0.028 |  |
| Cc1ccccc1-c1ccc([C@@H]2[C@H]3CNC[C@@H]2N3Cc2ccccn2)cc1 | 1.09 ± 0.026 |  |
| O=C(Nc1nccs1)[C@@H]1[C@@H](CO)[C@@H]2Cn3c(cccc3=O)[C@H]1N2C(=O)C1CC1 | 1.1 ± 0.092 |  |
| CN(C)C(=O)C[C@H]1C[C@H]2c3cc(NC(=O)Nc4ccc(F)cc4)ccc3O[C@H]2[C@@H](CO)O1 | 1.1 ± 0.12 |  |
| C[C@@H]1CN([C@H](C)CO)C(=O)c2cc(NC(=O)C3CCCCC3)ccc2O[C@@H](C)CCCCO[C@H]1CN(C)C(=O)CCC(F)(F)F | 1.05 ± 0.096 |  |
| CO[C@@H](CN(C)Cc1ccc(-c2ccccn2)cc1)[C@@H](C)CN(C(=O)Nc1ccc(F)cc1)[C@@H](C)CO | 1.044 ± 0.0044 |  |
| COc1ccc(NC(=O)N(C)C[C@H]2OCc3cnnn3CCCC(=O)N([C@@H](C)CO)C[C@@H]2C)c(OC)c1 | 0.981 ± 0.025 |  |
| COc1cccc(C#Cc2ccc([C@H]3[C@@H](CO)N4C(=O)CN(C(=O)c5ccccc5)C[C@H]34)cc2)c1 |  | 0.754 ± 0.074 |
| CN(C[C@@H]1[C@@H](c2ccccc2)[C@H](CO)N1CC1CC1)C(=O)c1ccc(F)cc1 | 1.07 ± 0.066 |  |
| COc1ccc(S(=O)(=O)Nc2ccc3c(c2)[C@@H]2C[C@@H](CC(=O)N(C)C)O[C@H](CO)[C@@H]2O3)cc1 | 1.09 ± 0.088 |  |
